# Over roughly 33,000 sequences, “E-score (-0.5 to 0.5)” has its median near -0.035; the highest 2% begin near 0.35. Some of the results follow.
# Biological target: T1, Pdr3 (UniProt P33200)
# T1 sequence: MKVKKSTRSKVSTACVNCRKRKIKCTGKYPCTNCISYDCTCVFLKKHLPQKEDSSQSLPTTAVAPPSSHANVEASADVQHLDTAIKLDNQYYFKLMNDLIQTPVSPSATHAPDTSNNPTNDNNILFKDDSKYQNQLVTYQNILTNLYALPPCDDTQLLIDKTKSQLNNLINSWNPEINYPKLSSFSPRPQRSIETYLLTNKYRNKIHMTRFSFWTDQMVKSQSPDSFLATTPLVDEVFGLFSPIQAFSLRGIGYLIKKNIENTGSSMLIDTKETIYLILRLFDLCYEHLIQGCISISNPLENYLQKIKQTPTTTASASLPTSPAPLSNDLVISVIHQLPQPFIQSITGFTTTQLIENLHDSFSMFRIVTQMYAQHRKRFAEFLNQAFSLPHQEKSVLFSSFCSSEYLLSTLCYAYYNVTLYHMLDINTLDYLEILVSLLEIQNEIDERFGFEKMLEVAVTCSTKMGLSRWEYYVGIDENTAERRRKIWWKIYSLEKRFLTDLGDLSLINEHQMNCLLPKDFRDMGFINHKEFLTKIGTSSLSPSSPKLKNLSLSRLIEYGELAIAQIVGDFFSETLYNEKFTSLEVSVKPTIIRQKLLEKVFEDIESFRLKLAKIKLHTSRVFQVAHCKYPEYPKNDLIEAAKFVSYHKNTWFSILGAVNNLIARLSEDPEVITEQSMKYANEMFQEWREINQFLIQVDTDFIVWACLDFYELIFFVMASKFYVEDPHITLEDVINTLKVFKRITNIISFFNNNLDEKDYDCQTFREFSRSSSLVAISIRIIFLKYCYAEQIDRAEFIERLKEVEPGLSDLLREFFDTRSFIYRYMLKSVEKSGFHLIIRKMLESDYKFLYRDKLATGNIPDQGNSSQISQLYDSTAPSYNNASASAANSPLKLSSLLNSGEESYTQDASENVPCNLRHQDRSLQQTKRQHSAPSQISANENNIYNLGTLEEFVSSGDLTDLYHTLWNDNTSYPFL
# Experiment: PBM E-score (8-mer binding enrichment) (E-score (-0.5 to 0.5)); higher = stronger / more preferred TF binding; most listed sequences are background and not binding sites
# Details: protein concentration: 200 nM; construct: GST-full length
# In short: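 PURExpress in vitro transcription/translation supplied GST-tagged yeast transcription factors, either full-length or DNA-binding domain. Applied at about 100-200 nM to universal all-10-mer Agilent arrays double-stranded by primer extension, the bound protein was detected with fluorescent anti-GST. E-scores, modified Wilcoxon-Mann-Whitney statistics, were given by the Universal PBM Analysis Suite to ungapped eight-base words pooled with their reverse complements after masliner normalisation.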
row,Sequence,PBM E-score
1,CGCCGACC,0.135
2,TCAGATAA,-0.0119
3,AACAGTCC,-0.277
4,AGATCGCA,-0.0373
5,AGGAAGCG,0.0228
6,ACGGACCT,0.275
7,GGCGGGCA,0.219
8,CACGTCTA,-0.301
9,GGTTATAC,-0.151
10,CGGTGCGC,0.264
11,CACTGCTC,0.0126
12,AAGACACT,-0.0496
13,AGGTCTGG,-0.1
14,ATATACCC,0.102
15,CGCGAGCG,0.106
16,ATGAGAAT,0.0389
17,CTATACAG,-0.198
18,CGCACGAG,-0.142
19,AGTTCTTA,0.0005
20,ACACTCGG,0.221
21,GCTGGGAC,0.0306
22,ATACACTG,-0.149
23,GACATACC,0.0363
24,GCACCCTA,-0.238
25,AATCCGTA,0.165

row,Sequence,PBM E-score
1,AATCTTTC,0.13
2,GTATGAAC,0.18
3,AATCACTG,0.0749
4,CTCATCAA,-0.035
5,CGATAGCA,-0.11
6,ATGATCTA,0.0443
7,AAACCGTA,-0.139
8,AATCATCC,0.102
9,ATTCGCTA,-0.14
10,AGGGCGCC,0.218
11,CATACGGC,0.143
12,GATATAGA,0.114
13,ACCAGTAC,-0.0471
14,ACTAGGCT,-0.165
15,CACGCACC,-0.072
16,AGGCTAGA,-0.222
17,CTGTCTGC,-0.0975
18,CCTTCTAG,-0.328
19,CTCAACCA,0.0107
20,CGACCCCA,0.0751
21,ACGGTTGG,-0.105
22,AGGTCACT,-0.241
23,ACGGTAGG,-0.0864
24,AGCGAACC,-0.101
25,CTGGGTAC,-0.0838

row,Sequence,PBM E-score
1,AGTGGAAC,-0.036
2,CAGGCTTA,-0.0395
3,TCCGTAGA,0.27
4,TAAACCTA,-0.0653
5,CTGGGGGA,-0.151
6,CAATGGGG,-0.0766
7,CATAGTTC,0.0368
8,CGAACACC,0.0926
9,AGGAGGAC,-0.331
10,CCGCTCTA,0.0682
11,ATTGGGCC,0.113
12,CCCAGCGG,0.0332
13,CGGCATTA,0.357
14,GCATGGCC,0.00825
15,GCCTTCCC,-0.1
16,TCGTACGA,-0.293
17,ATATAATC,-0.102
18,AACCACGG,0.214
19,ACTAAGTC,-0.179
20,CCCGGCCC,0.247
21,TATAAAGA,-0.141
22,ACTATCGC,-0.083
23,CTTCTTAC,0.011
24,AAAGCTGT,-0.0166
25,GCCAATAA,0.0393

row,Sequence,PBM E-score
1,CAGCCCAC,-0.16
2,ACTCTCGA,-0.112
3,AGCTAGGG,-0.0664
4,ACAGTCCG,0.109
5,CGTATTAA,-0.0323
6,ACCCTATG,-0.121
7,GCGGGGCC,0.234
8,CAGGCTCC,0.0129
9,AACAAAAT,-0.0255
10,AATGAACG,-0.121
11,AATACGAG,-0.0983
12,AACCTACC,0.0283
13,AACCATCC,0.162
14,CTTTTCGA,-0.119
15,GTATCGAA,-0.0487
16,TATTCGCA,-0.0986
17,CGAACAAA,0.253
18,CCATATGA,-0.192
19,ATAGAGGC,-0.211
20,ATTCAGGA,-0.065
21,CTTCACGA,-0.302
22,AGTATCGC,-0.0155
23,AAAGAACT,-0.0244
24,GCATGGTA,0.0348
25,ATTGTTCG,0.194

row,Sequence,PBM E-score
1,GCACGCCA,-0.115
2,CAACCGAG,-0.00908
3,GCTCGAAA,0.0413
4,GCGGCGCC,0.353
5,TCTCTAAA,-0.0289
6,GACCTCAA,-0.0717
7,CAGCGAAG,-0.211
8,CCCACCGC,0.114
9,ATCTCCTG,0.0507
10,CTGGACAA,-0.138
11,CAACCCAG,-0.0889
12,ACCACCGA,-0.0441
13,CGACAAAA,0.141
14,CCTCCTGC,-0.136
15,CGCATTAA,0.0118
16,AACCTTGG,-0.0868
17,CCCTCACA,-0.0423
18,ACCATCTC,-0.0136
19,AGTGCGAT,0.0401
20,TCTGCCCA,-0.125
21,GGTTTTGA,-0.11
22,GGTTCAGA,-0.0786
23,AGAGGACC,-0.211
24,CTTTTGGA,-0.0505
25,CCGATACC,0.121

row,Sequence,PBM E-score
1,TCCAGAGA,-0.24
2,TCAATAAA,-0.164
3,ATTATAAA,0.0934
4,CCTAGCGA,-0.248
5,CGGTTAAA,0.0999
6,ACTGCATC,0.041
7,GAGGTTGA,-0.0607
8,TTGAGCAA,-0.106
9,GCAGAGAC,-0.176
10,GAGTACGC,-0.0719
11,CAGACCAC,-0.0692
12,TACCGAGA,0.0153
13,AAGCCCCG,0.146
14,GACTCAGA,-0.168
15,AATTTGAC,-0.0174
16,ATCGCTCG,0.137
17,ACTACACT,-0.165
18,ACGATAAC,-0.0365
19,TTTATAAA,0.264
20,ACTGGAAC,0.0779
21,AGTCGATG,-0.0539
22,AAGCCAGT,-0.399
23,ATGAGGTG,-0.101
24,TGGACACA,0.0497
25,GCAGGGTA,-0.178

row,Sequence,PBM E-score
1,AATCCCTG,-0.0189
2,AGCGTTGA,-0.159
3,GACGGTGC,0.0508
4,GTGGCCAC,0.208
5,CGATGATC,0.00549
6,ATGTCACG,-0.054
7,AGGGAGGC,-0.0862
8,ACTCGCGG,0.0678
9,AAGACGAG,-0.144
10,GAGGCAAA,0.0299
11,CGGATCCG,0.489
12,GGCCCTAA,-0.0464
13,TATAGGGA,0.033
14,CAGAGTCA,-0.219
15,TATTCCCA,0.0626
16,AGATGGTC,-0.0811
17,GAGACTAA,-0.0463
18,CGGGCAGC,0.311
19,CACCCGCG,0.42
20,AGCCGTTA,0.0751
21,GCGGGTCA,0.149
22,CTAGTCAG,-0.316

# — the supplement of paper PMC3334620
